Assay results: the supplement of paper PMC4604168 (melanoma cell lines)
The other results are listed elsewhere or left out. Most values come without repeats; read them as rough.

tested on: UACC62; experiment: cell count relative to DMSO control; melanoma cells; higher = more viable cells; conditions: library dose: standard library concentration; 72 h
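Further: cells treated in 1,536-well plates, then fixed and DAPI-stained, with nuclei counted from automated high-throughput microscope images.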

SMILES	cell count [%]
C[C@]12O[C@H](C[C@]1(O)CO)n1c3ccccc3c3c4c(c5c6ccccc6n2c5c31)CNC4=O [Lestaurtinib] + O=C(Nc1cccc(Cl)c1)Nc1ncc(CCNc2ncnc3ccsc23)s1 [SNS314] (first compound 0.02 µM, partner dose 0.004 µM)	78.8
N.N.[Cl][Pt][Cl] [cisplatin] + CO[C@H]1C[C@@H]2CC[C@@H](C)[C@@](O)(O2)C(=O)C(=O)N2CCCC[C@H]2C(=O)O[C@H]([C@H](C)C[C@@H]2CC[C@@H](OCCO)[C@H](OC)C2)CC(=O)[C@H](C)/C=C(\C)[C@@H](O)[C@@H](OC)C(=O)[C@H](C)C[C@H](C)/C=C/C=C/C=C/1C [everolimus] (first compound 8 µM, partner dose 0.1 µM)	69.9
C[C@]12O[C@H](C[C@]1(O)CO)n1c3ccccc3c3c4c(c5c6ccccc6n2c5c31)CNC4=O [Lestaurtinib] + NC(=O)Nc1cc(-c2cccc(F)c2)sc1C(=O)N[C@H]1CCCNC1 [AZD7762] (first compound 0.02 µM, partner dose 0.1 µM)	79.5
C[As](C)SC[C@H](NC(=O)CC[C@H](N)C(=O)O)C(=O)NCC(=O)O [Darinaparsin] + Oc1nc(-c2ccc(C(F)(F)F)cc2)nc2c1CSCC2 [XAV939] (first compound 2 µM, partner dose 10 µM)	79.4
C[As](C)SC[C@H](NC(=O)CC[C@H](N)C(=O)O)C(=O)NCC(=O)O [Darinaparsin] + COc1ccc2c(c1)CCC1C2CCC2(C)C(NCCCCCCN3C(=O)C=CC3=O)CCC12 [U73122] (first compound 2 µM, partner dose 2 µM)	102
